Measurements taken from the RNAGym collection of RNA variant scans (doi:10.7554/elife.90254).
The source gives no read counts; variants with many changes may rest on few reads.

B1: LINE1-mini (parent)
chain: GGCAGAGCUCAACACAGCGUGGCAAAGUGGCUGUGGCUAGACUGCC

Variants of: B1
Experiment: self-cleavage, relative activity (ratio to wild type); higher = more cleavage; in vitro, sequencing; the parent is a self-cleaving ribozyme

| Variant | self-cleavage |
| --- | --- |
| GGCAGAGCUCAACACAGCGUGUCAAAGUGGGUGUGGCAAGACUACC | 0.02 |
| GGCAGAGCUCGACCCAGCGUGGCAAAGUGGCCGUGGCUAGACUGCC | 0.02 |
| GCCAGAGCUAAACACAGCGUUGCAAGGUGGCUGUGGCUAGACUGCC | 0.02 |
| GGCAGAGCUCAAAACAGCGUGGCAAAGGGGCUUUGGCUAGACUCCC | 0.01 |
| CGCCGAGCUCAACACAGCGUGGCAAAGUUGCUGUGGUUAGACUGCC | 0.05 |
| UGCAGAGCUCAACGCAGCGUGGCAAAGUUGCUGUGGCUAGACUGCU | 0.52 |
| GGCUGAGAUUAACACAGCGUGGCAAAGUAGCUGUCGCGAGACUGGC | 0.03 |
| GGCAGAGCACAACACAGCGUGGCAAACUGGCUGUGACUAGACGGCC | 0.2 |
| GGCAGAGCUCAACACAGCGUGGCCAAGUGGCUGUUGCUAUACUGCU | 0.07 |
| GGCCGAGCUCCACACGGCAUGGCAAAGUGGCUGUGGCUAGACUGCC | 0.01 |
| GGCAGAGCGCAACACAGUGUGCCAAAGUGGCUGUGGCUAGACUGCC | 0.04 |
| GGCAGAGCUCAACACAGCUUGGCAGCGUGGCUGUGGCUAAACUGCC | 0.02 |
| GGUAGAGCUCAACACAGCGUGGCAAAGUGGCUAUGGCUAGCCUGCC | 0.05 |
| GGCAGAGCUCAGCACAGCCUGGCAAAAUGGCUGUUGCUAGACUGCC | 0.01 |
| GGCAGAGCUCAACAAAGCGUGGCAAAGAGGCAGUGGCUAGACUGCC | 0.02 |
| CGCAGAGCUCAACACAGCGGGGCAAAUUGGCUGUGGCUAGACUUCC | 0.02 |
| GGCAGAGCGCAACACGGCGUGGCAAAGUGGCUGUGGAUAGACUGAC | 0.32 |
| GGCAGAGCUCAGUACAGCGUGGCAAAGUGGCUUUGGCUAGACUGCC | 0.03 |
| GGCAGAGCUCAACACAGGGAGGCAAAUUGGCUGUAGCUAGACUGCC | 0.03 |

| Variant | self-cleavage |
| --- | --- |
| GGUAGGGCUCAACACAGCGUGGCAAAGUGGCUGAGGCUAGACUGCC | 0.01 |
| GGUAGAGCUGAACACAGCGUGGCAUAGUGGCUGUGGCUAGACUGCC | 0.03 |
| GGCAGAGUUCAAAACAGCGGCGAAAAGUGGCUGUGGCUAGACUGCC | 0.05 |
| GGCAGAGCUCAACACAGCGUGGCAAAGUGGCUGUGGCUGUACUGCA | 0.05 |
| CGCUGAGCUCAACACAUCGUGGCAAAGUGGCUGUGGCUAGACUGCA | 0.03 |
| UGCAGAGCACAACACAGCCUGGCAAAGCAGAUGUGGCUAGACUUCC | 0 |
| GCCAGAGCUCAACACAGCGUGGCAAAGUGGCUGUCGCUAGCCUGCC | 0.05 |
| GGCAGAGCUGAAAUCAGCGUGGCAAAGUGGCUGUGGCUGGACUGCC | 0.04 |
| GGCAGCGAUCAACACAGCGUGGCAAAGUAGCUGUGUCUAGACUGCC | 0.11 |
| GGGAGAGCUCAACACAUCGUGGCAGUGUGGCUGUGGCUAGACUGCC | 0.13 |
| GGCAGAGUUCAACACAGCGUGGCAAAGAGGCUGUGGCUAGGCUGAC | 0.39 |
| GGCUGAGCUCAACACAGCGUGGCUAAAUGGCUGCGGCUAGACCGCC | 0.06 |
| GUCAGAGCUUAACACAGCGUGACAAAAUGGCUGUGGCUAGUCUGCC | 0.04 |
| GGAAGAGCUCAACACAGCCUGGCAGAGUGGCUGUGGCUAGACUGCC | 0.1 |
| GGAAGAGCUCAACACAACGUUGCAAAGUGGCUGUGGCUAGACUGCC | 0.25 |
| GGCAGAGCUCUACACAGCGUGGCAAAGUUGCUGUGGGUAGACUGGC | 0 |
| GGCAGAGCUCAAAACAGGGUGGAAAAGUGGCUGUGGCUAGACUGUC | 0.11 |
| GGCAGAGCUCUACAAAGCGUGGCAAAGUGGCUGUAGCGAGACUGCC | 0.01 |
| GGCAUAGCUCAACACAGCGUGGCAAAGUGGCUGUGGCUAGGCUGUC | 0.03 |

| Variant | self-cleavage |
| --- | --- |
| GCGAGAUCUCAACACACCGUGGCACAGUGGCUGUCGUUACACUGCC | 0.02 |
| UGCAGAGCUCAACACAGCGUGGCAAAAUGGCUGUGGCUAGACAGCC | 0.05 |
| GGCAGAGAUCACCACACCGGGGCAAAGUGGCUGUGGCUAGACUGCC | 0.03 |
| GGCUGAGCUCAACACAGCGUGGCAAAGUGGAUGUGGCUAGACUGAC | 0 |
| UGCAGAGCUCAACACAGCGCGGCAAAGUGGCUGUGUCUAGACUGCC | 0.03 |
| GGCAGAGCUCAUCACAGCGUGCCAAAGUGGCCGGGUCUAGACUGCC | 0.02 |
| GGCACAGCUCUUGACAGCGUGGCAACGUGGCUGUGGCUAGACUGCC | 0.03 |
| GGCAGAACUCAACUCAGCGUGGCAAAGUUGCUGUGGCUAGACUGCC | 0.2 |
| GGCAGAGCGCAACACAGCGUGGCAAACUGGCUGUGACUAGACUGCC | 0.53 |
| GGCAGAGCGCACCACAGCGUCCCAUAGUGGCUGUGGCUAGACUGCC | 0.03 |
| GGCAGAGCUCAACAAAACAUGGCAAAGUGGCUGUGGCUAGACUGCC | 0.1 |
| AGCAGAGCUCAACACAGCUUGGCAAAUUGGCUGUGGCUAGCGUGCA | 0.04 |
| GGCAGAGCUAAACACAGCGUGGCAAAGUGGCUAUGGCUAGACCGCA | 0.02 |
| GGCAGAGCUCAACACAGUGUGGCUAAGUGGCUGUGGCUAGACAGCC | 0.04 |
| GGCAGAGCUCUACACAGCAUGUCAAAGUGGCUGUGGCUAGACUGCC | 0.06 |
| GGCAGAGCUCCACACAGCGUGGCAAAGUGGCUGCGGCUAGACUGCU | 0.1 |
| GGCAGCGCUUAACACAGCGUGGCAAAGUUGCUGUGGCUAGACUGCC | 0.14 |
| GGCAGAGCUCAAAACAUCGUGACAAAGUGGCUGUGGGUAGACUGCC | 0.06 |
